Source: the RNAGym collection of RNA variant scans (doi:10.1093/nar/gkz1192)
Read counts are not given, so values of variants with three or more changes are uncertain.

B1: CPEB3 Ribozyme (parent)
chain: UAACAGGGGGCCACAGCAGAAGCGUUCACGUCGCAGCCCCUGUCAGAUUCUGGUGAAUCUGCGAAUUCUGCUGUAUAUCUC

Variants of: B1
Assay: self-cleavage, relative activity (ratio to wild type); higher = more cleavage; in vitro, sequencing
Outline: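 Relative activity compares each variant's cleaved/total read fraction with that of the unmutated ribozyme. To get these fractions, barcoded CPEB3 ribozyme libraries from rounds of error-prone PCR were transcribed with T7 RNA polymerase for 5 hours at 37°C and then given 15 min of DNase I treatment before EDTA was added. The RNAs were reverse transcribed with template switching and sequenced on Illumina, and DNA sequencing linked barcodes to variants. A minimum of 5 reads applied, and three batches were averaged.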

| Variant | self-cleavage |
| --- | --- |
| A2U A3U G19U U48C C71A U72C | 0.17 |
| A2U A3U U26C U41C U67G A75G A77G | 0.19 |
| A2U A5C A28U | 0.98 |
| A2U A5G A13U U25C A77G U78C | 0.21 |
| A2U A5G A15G C27U G33C U76C | 0.18 |
| A2U A5G A15G U25C A35G A64U | 0.08 |
| A2U A5G G9U C40U U43A U48C A57G | 0.05 |
| A2U A5G G19U U41C U80C | 0.08 |
| A2U A5G G36A C39A A75U | 0.38 |
| A2U A5G U25C U41C U67C | 0.29 |
| A2U A5G U26C G33A A47G | 0.2 |
| A2U A5G U43A U48C A65G | 0.23 |
| A2U A5U A13G A64G | 0.98 |
| A2U A5U A15G A56G U67A U69C | 0.19 |
| A2U A5U A18G U48C G70C U80C | 0.33 |
| A2U A5U A20U A21G U43A | 0.08 |
| A2U A5U G10A A45G U49C G55C A64U | 0 |
| A2U A5U G24A G36A U48A | 0.06 |
| A2U A13C A18G A28U U72C | 0.32 |
| A2U A13G A15U G30U A65G A77U | 0.16 |
| A2U A13G A20G A35G U48C U80C | 0.16 |
| A2U A13G G16U A18U U80A | 0.29 |
| A2U A13G G33A U43A A45U U69C | 0.07 |
| A2U A13G G61A | 0.39 |

| Variant | self-cleavage |
| --- | --- |
| A2U A13G U25C C68U | 0.12 |
| A2U A13G U26C A35U | 0.47 |
| A2U A13G U26C U43A | 0.15 |
| A2U A13G U41C U69A G73A | 0.7 |
| A2U A13U A15G U41A U49C | 0.41 |
| A2U A13U A77G | 1.11 |
| A2U A13U G30A A57G A64U U72C U80C | 0.07 |
| A2U A13U U25C A47G U60C G63C | 0.1 |
| A2U A15G A28U A64G U69A | 0.04 |
| A2U A15G U26C A57G U72C | 0.56 |
| A2U A15U A18G A35U U41G U66A | 0.11 |
| A2U A15U A45U U51A U69C | 0.28 |
| A2U A15U U25C U26C A64G | 0.23 |
| A2U A15U U26A | 0.41 |
| A2U A15U U26C A57G | 0.4 |
| A2U A18C A21U U58C | 0.15 |
| A2U A18G A20U A45U A47G U67C | 0.07 |
| A2U A18G A35U U51C | 0.11 |
| A2U A18G A47G | 0.79 |
| A2U A18G A47G U72G | 0.34 |
| A2U A18G C23U A56G A64U | 0.19 |
| A2U A18G C38U U41C U49A A64G U76A | 0.05 |
| A2U A18U C38G U78A C81U | 0.5 |
| A2U A18U C68A | 0.16 |

| Variant | self-cleavage |
| --- | --- |
| A2U A18U U48C U67A U69C | 0.13 |
| A2U A20G A64G | 0.56 |
| A2U A20G A75G | 0.67 |
| A2U A20G C23A U31A U49C U72A U80C | 0.15 |
| A2U A20G G55A | 0.64 |
| A2U A20G U26A C38U A47U U51C U74A | 0.2 |
| A2U A20G U41A U58A G63A A64G U72C | 0.12 |
| A2U A20G U41C G42A U51C | 0.06 |
| A2U A20G U41C U54C A75G | 0.67 |
| A2U A20G U51C U58G | 0.13 |
| A2U A20U A45G A56G U72C | 0.53 |
| A2U A20U A47U | 0.29 |
| A2U A20U U43C U69C A77G | 0.15 |
| A2U A21C U72C U74A | 0.12 |
| A2U A21G A45U U54A | 0.16 |
| A2U A21G A64G U72C | 0.32 |
| A2U A21G U54A | 0.72 |
| A2U A21G U72C G73A | 0.86 |
| A2U A21G U74C | 0.97 |
| A2U A21U A28C C37G G55U U58C U69A | 0.07 |
| A2U A21U A28U U41A U48C U51A A57U | 0.05 |
| A2U A21U U26A A35U | 0.05 |
| A2U A28G A45G | 0.14 |
| A2U A28G U41A U43C U54C A75U | 0.12 |

| Variant | self-cleavage |
| --- | --- |
| A2U A28U U43C U60A | 0.08 |
| A2U A45G A75G | 0.89 |
| A2U A45G U69C | 0.24 |
| A2U A45U U49A G53U C59A | 0.15 |
| A2U A45U U49C | 0.03 |
| A2U A47G A57C | 0.25 |
| A2U A56G A57G U69A | 0.24 |
| A2U A56G A65G | 0.22 |
| A2U C4U U43G U74A | 0.23 |
| A2U C4U U72C U78A | 1.22 |
| A2U C11G C34G C38A | 0.13 |
| A2U C11U A45G | 0.14 |
| A2U C12A A13G A18G U54C C59U | 0.12 |
| A2U C14U A64G U69A U72C U76A | 0.19 |
| A2U C14U U25C | 0.37 |
| A2U C14U U69A U74C | 0.76 |
| A2U C17A U26A A56G | 0.22 |
| A2U C17A U43C U69C U72A | 0.09 |
| A2U C23U U26G A56U U74C | 0.17 |
| A2U C27A U60C | 0.22 |
| A2U C27U A28G A45C A64U A65G U67C | 0.06 |
| A2U C32U A45U A47U U48G U66C | 0.11 |
| A2U C34U A65G U67C | 0.17 |
| A2U C37A C59U U60C | 0.16 |

| Variant | self-cleavage |
| --- | --- |
| A2U C59G U60C A65G | 0.12 |
| A2U C71U U78C | 0.49 |
| A2U G7A A28G U72C | 0.26 |
| A2U G7A A35G U48A G53U | 0.61 |
| A2U G7A A65G U72C | 0.31 |
| A2U G7A A65U | 0.07 |
| A2U G7A C23A U26G U51A G70A | 0.15 |
| A2U G7U A20G C23U U58C | 0.08 |
| A2U G8U A15U U25C A45G | 0.28 |
| A2U G9A A15U A56G C59A U78C | 0.05 |
| A2U G9A A18U A56U G70C | 0.06 |
| A2U G9C G24C A28G U60A | 0.06 |
| A2U G9U A35C U51C | 0.07 |
| A2U G19U A57G | 0.26 |
| A2U G36A U54C | 0.11 |
| A2U G36U U41A A45G U60A U66C | 0.06 |
| A2U G63C U74C | 0.89 |
| A2U U25A U26C U43A C50U U58C U78C | 0.09 |
| A2U U25A U31C A35G U49C A57C U67A | 0.06 |
| A2U U25A U43A U54C U60C U67C | 0.08 |
| A2U U25C A47G U60A A64G | 0.1 |
| A2U U25C A65G U69A | 0.1 |
| A2U U25C C29A C62A A77G C81U | 0.07 |
| A2U U25C G63U | 0.5 |

| Variant | self-cleavage |
| --- | --- |
| A2U U25C U26C U54G | 0.44 |
| A2U U25C U41C U69C | 0.05 |
| A2U U25C U74A | 0.52 |
| A2U U25G G52U A56U | 0.36 |
| A2U U26A U49A U60A | 0.14 |
| A2U U26C U49A | 0.42 |
| A2U U26C U51C U78C | 0.45 |
| A2U U26G G36A A45U A56U | 0.06 |
| A2U U31A A35U A45U U49C A77G | 0.07 |
| A2U U31G A64G U74C | 0.51 |
| A2U U41A G73A | 0.3 |
| A2U U41C A45U | 0.68 |
| A2U U41C U60C | 0.41 |
| A2U U41C U69C | 0.51 |
| A2U U41C U72A | 0.74 |
| A2U U41C U74C | 1.25 |
| A2U U43C A45U A57U | 0.23 |
| A2U U43C A47G | 0.27 |
| A2U U43C A65G U78A | 0.26 |
| A2U U49C G63A U72C | 0.13 |
| A2U U49C U54G | 0.29 |
| A2U U49C U60C A65U | 0.1 |
| A2U U49C U72A | 0.5 |
| A2U U51C A57U | 0.43 |

| Variant | self-cleavage |
| --- | --- |
| A2U U51C U54A A64G U74C | 1.13 |
| A2U U51C U60C U69A U78C | 0.32 |
| A2U U54C U60A U67C U78C | 0.22 |
| A2U U66A A75G | 0.29 |
| A2U U66C U72C U74A U78C | 0.57 |
| A3C A5C A15U A28G U66C G70A U72C | 0.05 |
| A3C A5C G36A | 0.33 |
| A3C A5G A18C U26C C40A | 0.62 |
| A3C A5G A28G A47G U80C | 0.77 |
| A3C A5G A35U A64U | 0.25 |
| A3C A5G G9A U25C A47G U80C | 0.1 |
| A3C A13G A18G C29U G36U U49C U54A | 0.08 |
| A3C A13G G16U A21G G70A U72G | 0.08 |
| A3C A13G U25A U26C U80C | 0.7 |
| A3C A13U A15G A20G U41C | 0.62 |
| A3C A13U A21G U26A U41C G42A A65G | 0.07 |
| A3C A13U U51A | 0.72 |
| A3C A13U U54C | 1.23 |
| A3C A15G A21U G70A | 0.54 |
| A3C A15G A35G U49C | 0.48 |
| A3C A15G G30A U31C A45U G53A U80A | 0.11 |
| A3C A15G G63C | 1.12 |
| A3C A15G U25C A57G | 0.7 |
